Reference: PubChem BioAssay AID504339 (National Center for Advancing Translational Sciences (NCATS), 2011)
The campaign covered roughly 390,000 compounds. About 17,000 (4.4%) were called active. The inconclusive results got no clear call from the source; some entries with a clear call stand among them for comparison. Calls come from the whole dose curve; as a rule, active = well fitted inhibition curve with a large enough effect; inconclusive = small, poorly fitted or top-dose-only effect; inactive = no such curve, though single readings can be large or run the other way. A potency beside an inconclusive call is a rough fit, not a confirmed value.

Target: Lysine-specific demethylase 4A (Homo sapiens) (UniProt O75164)
UniProt O75164, sequence (O75164 whole entry, looked up, the tested form may be a part): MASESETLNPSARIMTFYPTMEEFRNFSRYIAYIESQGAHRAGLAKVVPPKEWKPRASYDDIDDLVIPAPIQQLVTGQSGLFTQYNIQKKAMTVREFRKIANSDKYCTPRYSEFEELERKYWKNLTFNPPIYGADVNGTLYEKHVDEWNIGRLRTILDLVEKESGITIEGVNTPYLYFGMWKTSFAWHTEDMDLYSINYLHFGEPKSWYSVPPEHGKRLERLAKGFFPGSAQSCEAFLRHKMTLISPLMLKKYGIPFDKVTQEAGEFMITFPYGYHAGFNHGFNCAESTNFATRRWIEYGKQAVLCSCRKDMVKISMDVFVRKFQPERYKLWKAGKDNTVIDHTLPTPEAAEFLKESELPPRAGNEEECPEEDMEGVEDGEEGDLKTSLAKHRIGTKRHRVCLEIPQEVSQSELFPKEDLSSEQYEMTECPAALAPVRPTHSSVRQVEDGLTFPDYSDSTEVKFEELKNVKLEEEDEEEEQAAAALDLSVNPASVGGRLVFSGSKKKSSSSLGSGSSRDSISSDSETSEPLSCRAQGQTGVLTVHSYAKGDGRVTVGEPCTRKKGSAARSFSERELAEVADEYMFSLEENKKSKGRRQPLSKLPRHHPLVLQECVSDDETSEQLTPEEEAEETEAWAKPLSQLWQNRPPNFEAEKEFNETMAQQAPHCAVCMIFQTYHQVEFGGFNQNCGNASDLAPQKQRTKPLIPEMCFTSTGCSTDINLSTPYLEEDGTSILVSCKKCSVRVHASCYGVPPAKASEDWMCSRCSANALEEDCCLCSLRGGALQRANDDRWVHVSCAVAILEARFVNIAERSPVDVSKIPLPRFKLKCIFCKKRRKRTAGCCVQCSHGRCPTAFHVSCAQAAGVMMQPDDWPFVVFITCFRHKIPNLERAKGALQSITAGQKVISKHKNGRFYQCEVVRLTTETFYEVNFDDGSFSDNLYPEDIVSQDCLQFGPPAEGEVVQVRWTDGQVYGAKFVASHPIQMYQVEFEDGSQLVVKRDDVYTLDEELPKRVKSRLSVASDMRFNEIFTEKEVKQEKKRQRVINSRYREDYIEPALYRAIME
Test: qHTS Assay for Inhibitors of JMJD2A-Tudor Domain; note: nearly all actives have a fitted effect of over 50% in size
Settings: AlphaScreen JMJD2A-Tudor / H3K4me3 peptide binding; activity change, negative = inhibition: at 114 µM (top of the series)
% is set by controls: 0 for no effect and ±100 for the full control effect; potency is the fitted concentration of half-maximal effect; tags give direction and shape of the fitted curve.

Potency, active:
CC(C)Oc1ccc(C(CCN)C2CCCCC2)cc1 (stereo not given) 22.4 µM, COc1ccc(NS(=O)(=O)c2cc(N)ccc2N2CCCC2)cc1 56.2 µM, COc1ccc(CCNC(=O)CSc2nnc(Cc3csc(N)n3)n2C)cc1OC 50.1 µM, CCn1c2ccccc2c2cc(CN3CCN(Cc4cc(OC)ccc4O)CC3)ccc21 1 µM, Cc1ccc2nc(N3C(=O)C(O)=C(C(=O)c4ccc(C)o4)C3c3ccco3)sc2c1 (stereo not given) 50.1 µM, CCOC(=O)c1sc(Nc2ccc(Br)cc2)nc1C 56.2 µM, Cc1ccccc1N/N=C/c1ccc(N2CCOCC2)cc1 50.1 µM, Nc1ccccc1Sc1nc2ccccc2[nH]1 28.2 µM, O=C(/C=C/c1ccccc1)CC(=O)c1ccccc1O 25.1 µM, CCOc1ccc(/C=N/n2c(COc3ccccc3)n[nH]c2=S)cc1OC 20 µM, COc1cc(/C=N/Nc2ccc(C)cc2)cc(Br)c1O 50.1 µM, Cc1cccc(-n2c(-c3ccncc3)n[nH]c2=S)c1C 12.6 µM, O=C(/C=C/c1ccccc1)OCCCCN=C1NS(=O)(=O)c2ccccc21 28.2 µM

Potency, inconclusive:
COc1ccc(-n2c(=O)c3c4c(sc3n(CC(=O)Nc3cc(C)[nH]n3)c2=O)CCCC4)c(OC)c1 15.8 µM [inhibitor, full curve, poor fit], Cc1cnc(NC(=O)CSc2nnc(N)s2)s1 22.4 µM [inhibitor, partial curve, poor fit], C[C@H](CO)N1C[C@H](C)[C@@H](CN(C)S(=O)(=O)c2ccccc2)Oc2c(NC(=O)Nc3ccc4c(c3)OCO4)cccc2C1=O 56.2 µM [inhibitor, partial curve], N#CC1=C(N)NC(=S)C(C(N)=O)C1c1ccc(Cl)cc1Cl (stereo not given) 56.2 µM [inhibitor, partial curve], COc1ccc(C2c3c(ncn(CCc4ccccc4)c3=N)Oc3ccc4ccccc4c32)cc1OC (stereo not given) 56.2 µM [inhibitor, partial curve], O=c1[nH][nH]c(-c2ccccc2O)c1C(C[N+](=O)[O-])c1ccc(Br)cc1 (stereo not given) 56.2 µM [inhibitor, partial curve], Cc1ccc(NC2=Nc3ccccc3CS2)cc1 79.4 µM [inhibitor, partial curve], Cc1cc(/C=C(\C#N)C(=O)NCc2ccco2)c(C)n1C1CCCC1 56.2 µM [inhibitor, partial curve], COc1ccc(/C(C)=C2/SC(=S)N(CCC(=O)O)C2=O)cc1 39.8 µM [inhibitor, full curve], COc1cccc(C2c3c(-c4ccccc4O)n[nH]c3C(=O)N2CCc2ccc(OC)c(OC)c2)c1 (stereo not given) 22.4 µM [inhibitor, full curve], O=C(CSc1ncc(CO)n1Cc1ccccc1)Nc1ccc(C(F)(F)F)cc1 50.1 µM [inhibitor, partial curve], O=C(NC1CCCCC1)C(c1ccc(O)cc1)N(CC1CCCO1)C(=O)C1COc2ccccc2O1 (stereo not given) 63.1 µM [inhibitor, partial curve, poor fit], CC(=O)Nc1cccc(Oc2nc(C)cc(C)c2C#N)c1 14.1 µM [inhibitor, full curve], CCCCn1c(CCNC(=O)CCC)nc2ccccc21 100 µM [inhibitor, partial curve, poor fit], O=C1c2cccc3c([N+](=O)[O-])ccc(c23)C(=O)N1c1ccc(Cl)cn1 28.2 µM [inhibitor, full curve], COc1ccccc1C1CC(=O)n2c(nc(-c3ccccc3)c2-c2ccccc2)S1 (stereo not given) 56.2 µM [inhibitor, partial curve], COc1ccc(OCc2cccc(C(=O)Nc3ccc(CN4CCCCC4)cc3)c2)cc1 31.6 µM [inhibitor, partial curve], CCc1cc2c(NCc3ccco3)ncnc2s1 39.8 µM [inhibitor, single point], Cc1cccc(C2c3[nH]c4ccccc4c3CCN2C(=O)c2cc3c([nH]c2=O)CCCC3)n1 (stereo not given) 63.1 µM [inhibitor, partial curve, poor fit], CSc1ccc(CCNC(=O)CCc2c(C)nc3cc(-c4ccccc4)nn3c2C)cc1 3.98 µM [inhibitor, single point], O=[N+]([O-])c1ccc(NC(c2ccccc2)c2ccc3cccnc3c2O)cc1 (stereo not given) 35.5 µM [inhibitor, partial curve], CCCOc1ccc(CN(C(=O)c2nc(SC(C)C)ncc2Cl)C2CCS(=O)(=O)C2)cc1 (stereo not given) 50.1 µM [inhibitor, partial curve], Cc1ccc(S(=O)(=O)N2CCN(c3nc(-c4cscn4)nc4ccccc34)CC2)cc1 3.16 µM [inhibitor, full curve], CCOC(=O)c1c(C)nc2c(c1-c1cc(OC)ccc1OC)C(=O)c1ccccc1-2 28.2 µM [inhibitor, partial curve], C/C(=N\NC(=S)NC(C)C)c1ccc(-n2ccnc2)cc1 70.8 µM [inhibitor, single point], CCN1c2cc(C)ccc2-n2cccc2C12CCN(C(=O)Nc1cc(OC)c(OC)c(OC)c1)CC2 15.8 µM [inhibitor, full curve], CCOC(=O)c1cc(-c2ccccc2)n(-c2cccc(C(=O)N(CC)c3ccccc3)c2)c1C 22.4 µM [inhibitor, full curve], CN(C)S(=O)(=O)c1cccc(NC(=S)NC(=O)c2ccco2)c1 39.8 µM [inhibitor, single point], CCOC(=O)C(C(C)=O)c1c(Br)c(O)c(O)c2c(C(=O)c3ccc(C)cc3)coc12 (stereo not given) 17.8 µM [inhibitor, full curve], COc1ccc(N2CCN(C(=O)CCC(=O)N3CC(C)Oc4ccc(C)cc43)CC2)cc1 (stereo not given) 50.1 µM [inhibitor, partial curve], CCCSc1ccc([C@@H]2[C@H]3C(=O)N(CC)C(=O)[C@H]3[C@]3(C(=O)OC)CCCN23)cc1 79.4 µM [inhibitor, partial curve], CN(CC(=O)Nc1cccc(F)c1)C(=O)c1ccc(-c2ccc(Cl)cc2)o1 63.1 µM [inhibitor, partial curve], CC1CCCC(C)N1/N=C/c1ccc(C#N)cc1 (stereo not given) 50.1 µM [inhibitor, partial curve], Cc1ccc2c(c1)-c1c(ssc1=S)C(C)(C)N2C(=O)CN1C(=O)c2ccccc2C1=O 12.6 µM [inhibitor, full curve], CC1=C(C(N)=O)C(c2ccc(F)cc2)n2nc(-c3ccc(N(C)C)cc3)nc2N1 (stereo not given) 79.4 µM [inhibitor, partial curve], COc1ccc(/C=C(\C#N)C(=O)Nc2cc(S(=O)(=O)N3CCOCC3)ccc2N2CCCC2)cc1 17.8 µM [inhibitor, full curve, poor fit], CCN1C(=O)C(=Cc2cccc(OC)c2Oc2ccc([N+](=O)[O-])cc2[N+](=O)[O-])SC1=S 3.16 µM [inhibitor, full curve], COc1ccc(Cl)cc1N/C(N)=N/c1nc(C)cc(=O)[nH]1 35.5 µM [inhibitor, single point], COc1cccc(C(=O)NCCSCc2c(F)cccc2Cl)c1 35.5 µM [inhibitor, single point]

Activity change, negative = inhibition, inactive:
CNS(=O)(=O)c1ccc2c3c(cccc13)C(=O)N2C 13%, CCOC(=O)c1ccccc1NC1CC(=O)N(c2ccccc2C)C1=O (stereo not given) -20%, COc1cc(NC(=O)CN2C(=O)CN(C)C(=O)c3ccccc32)cc(OC)c1OC -8.33%, CC1=C(c2ccc(C(C)C)cc2)S(=O)(=O)NC1=NCc1ccccc1Br -14.2%, CN(C)CC(C)(C)CNS(=O)(=O)c1ccc(Cl)cc1 -7.52%, Cc1ccc(C(=O)N(C)CC(=O)Nc2ccc(N3CCOCC3)cc2)s1 -13.9%, O=C(Cn1c(NCCO)nc2ccccc21)N1CCN(Cc2ccccc2)CC1 -13.3%, CCOc1ccccc1N(C)C(=O)c1ccc2c(=O)n3c(nc2c1)CCCCC3 -28.2%, Cc1cc(=O)[nH]c(N/N=C/c2ccccc2C(F)(F)F)n1 1.04%, Fc1ccc(-c2nnc(-c3ccc(Cl)cc3)o2)cc1 -13.5%, CCOc1ccc(N(CC(=O)NC2CCCCC2)C(=O)CCC(=O)Nc2ccccn2)cc1 5.28%, CC(C)CC(=O)Nc1cccc(NC(=O)c2ccccc2Cl)c1 -1.86%, Cc1cc(C)cc(-n2ccn3c(CC(C)(C)CC(=O)O)nnc3c2=O)c1 -11.9%, COc1ccc(N2CC(NC(=O)COc3ccccc3C)CC2=O)cc1OC (stereo not given) -14.3%, Cc1c(Nc2cc(Cl)c3nonc3c2[N+](=O)[O-])c(=O)n(-c2ccccc2)n1C -9.02% [at 11.4 µM], CCOC(=O)CN1C(=O)S/C(=C/c2ccc(C)o2)C1=O -21.8%, Cc1ccc(C(=O)OCC(=O)N(C)C2CCS(=O)(=O)C2)cc1S(=O)(=O)N1CCCCC1 (stereo not given) -2.07%, Cc1nn(C2CCS(=O)(=O)C2)c(C)c1CN(C)C(=O)c1cccc(Cl)c1 (stereo not given) -4.58%
